Data reported in the supplement of paper PMC10338343.
± gives the standard deviation. This is a selection; strong and weak results do not stand in their true shares.

Tested on: MIWI (PIWIL1) piRISC loaded with L1MC piRNA (30 nt)
Test: pre-steady-state target cleavage rate (min^-1); MIWI and MILI are mouse PIWI proteins and EfPiwi is from a freshwater sponge; tags in brackets are library labels; higher = faster piRNA-guided slicing of the target
Settings: guide: L1MC piRNA 5'p-UAACUAAAUACUAUGCAAGCUGUAGGUCCU
Outline: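 Cleave-'n-Seq: a transcribed, DNA-blocked target RNA library (0.1 nM) was mixed with 1 nM active affinity-purified piRISC carrying one synthetic guide, with or without 500 nM GTSF1 partner protein, in HEPES–potassium acetate buffer at 33 °C for 0–8 or 0–960 min. Uncleaved targets were sequenced and normalised to depth and to weakly complementary targets. Three trials were pooled, and k3 was capped at 0.0001 min^-1. The pre-steady-state cleavage rate came from a burst-and-steady-state fit.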

[1] = auxiliary factor: 500 nM mouse GTSF1
[2] = auxiliary factor: none (no GTSF1)

Sequence | pre-steady-state target cleavage rate [1] | pre-steady-state target cleavage rate [2]
UCCUGGAACUGCUUGCAUAGUAUUUAGUAA | 0.419 ± 0.03 | 0.0135 ± 0.0036
UCCUCCUACAGCUUGCAAAGUAUUAAGUUA | 0.361 ± 0.028 | 0.00876 ± 0.0021
UCCUGGAUGUGCAUGCAUAGUAUUUAGUUA | 0.13 ± 0.014 | 0.00793 ± 0.0025
UCCUGGAUGUGCUCUGCAUAGUAUUUAGUUA | 0.21 ± 0.025 | 0.00818 ± 0.0038
AGGACCUAGAGCUUGCAUAGUAUUUAGAAA | 0.332 ± 0.051 | 0.0106 ± 0.0033
UCCUGCUACAGCUUGCAUAGUAUUUAUUUA | 0.418 ± 0.057 | 0.0102 ± 0.0029
UCCUGGUACAGGCUUGCAUAGUAUUUAGUUA | 0.498 ± 0.059 | 0.0384 ± 0.0089
UCCACCUUCAGCAUGCAUAGUAUUUAGUUA | 0.858 ± 0.037 | 0.0222 ± 0.0045
UCCUGGAUCAGGAUGCAUAGUAUUUAGUUA | 0.0609 ± 0.0094 | 0.00329 ± 0.0021
UCCUCGUACAGCUUGCAUAGUAUUUUGUUA | 0.762 ± 0.038 | 0.0372 ± 0.006
UCCACCAACAGCUUGCAUAGAAUUUAGUUA | 0.386 ± 0.038 | 0.0214 ± 0.0056
UGGACCUAGUGCUUGCAUAGUAUUUAGAAA | 0.0381 ± 0.0062 | 0.0041 ± 0.0021
UCCUCCUACAGGCUUGCAUAGUAUUUAGUUA | 0.937 ± 0.041 | 0.0442 ± 0.0069
UCCUGGAUCAGACUUGCAUAGUAUUUAGUUA | 0.795 ± 0.048 | 0.0245 ± 0.0063
UCCUGCUACACCUUGCAUAGUAUAUAGUUA | 0.308 ± 0.045 | 0.0293 ± 0.0057
UCCUGCUACAGCUUUGCAUAGUAUUUAGUUA | 0.698 ± 0.045 | 0.00988 ± 0.0021
AGGACCUACAGCUAGCAUACUAUUUAGUUA | 0.389 ± 0.029 | 0.0192 ± 0.0036
UCCUGGAUCUGCUUGCAUAGUAAUUAGUUA | 0.244 ± 0.03 | 0.0095 ± 0.0034
UCCUGCUACAGCUUGCAUAGUAUUUUAGUUA | 0.817 ± 0.067 | 0.0107 ± 0.0028
AGGACCUACAGCUUGCAUACUAUUUACUUA | 0.236 ± 0.029 | 0.0261 ± 0.0052
UCCUGGAUCAGGUUGCAUUGUAUUUAGUUA | 0.122 ± 0.015 | 0.00468 ± 0.0023
UCCUCCUACAGCUUGGAUUGUAUUUAGUUA | 0.396 ± 0.032 | 0.011 ± 0.0027
UCCUGGAUGAGCUUGCAUAGUAUUAAGUUA | 0.544 ± 0.066 | 0.0124 ± 0.0049
UGGACCAACAGCUUGCAUACUAUUUAGUUA | 0.419 ± 0.017 | 0.0377 ± 0.0075
UGGUACCUACAGCUUGCAUAGUAUUUAGUUA | 0.945 ± 0.17 | 0.117 ± 0.034
UCGACCUACAGCUUGAUAGUAUUUAGUUA | 1.08 ± 0.067 | 0.00731 ± 0.0024
UCCUGGUUCACCUUGCAUAGUAUUUAGUUA | 0.34 ± 0.046 | 0.0124 ± 0.003
AGGACCUACACCUUGCAUAGUAUUUAGAAA | 0.714 ± 0.098 | 0.0173 ± 0.0056

Sequence | pre-steady-state target cleavage rate [1] | pre-steady-state target cleavage rate [2]
UCCACCUACAGCAUGCAUAGUAUUAAGUUA | 0.655 ± 0.064 | 0.00909 ± 0.0019
AGGACCUACAGGCUUGCAUAGUAUUUAGUUA | 1.16 ± 0.07 | 0.0646 ± 0.01
UCCACCUACAGCUUGCAGAGUAUUUAGUUA | 0.75 ± 0.039 | 0.023 ± 0.0052
UGGACCAACAGCUUGCAUAGUAUUUUGUUA | 0.924 ± 0.055 | 0.0385 ± 0.0065
UCGACGAACAGCUUGCAUAGUAUUUACAAA | 0.4 ± 0.048 | 0.00547 ± 0.0022
UCCUCCUACAGGAUGCAUAGUAUUUAGUUA | 1.05 ± 0.055 | 0.0111 ± 0.0022
AGGUCCUACAGCUUGCAUAGUAUUUACUUA | 0.425 ± 0.052 | 0.0799 ± 0.018
UCCUCCUACUGCUUGCAUAGUAUUUAGUAA | 0.328 ± 0.029 | 0.0179 ± 0.0034
UCCUGGAUCAGCUUGGAUAGUUUUUAGUUA | 0.23 ± 0.022 | 0.0253 ± 0.0077
UGGACCUACAGCUUGCAAUGUAUUUAGUAA | 0.268 ± 0.032 | 0.00319 ± 0.0022
AGGACCUACAGCAUGCAUAGUAUUUUGUUA | 0.928 ± 0.078 | 0.0308 ± 0.0084
UCCUGGAUCAGCUUGCAUAGUAUUUAGUA | 0.838 ± 0.043 | 0.0119 ± 0.0038
UCCUGGAUGAGCAUUGCAUAGUAUUUAGUUA | 0.497 ± 0.05 | 0.016 ± 0.0046
UCCUGCUACAGGUUGCAUAGUAUUUAGUAA | 0.858 ± 0.083 | 0.00875 ± 0.0025
UCGACCUACAGCUUGCAUAGUAUUGUAGUUA | 0.359 ± 0.042 | 0.0275 ± 0.0055
UCCUGGUAGAGCUUGGAUAGUAUUUAGUUA | 0.481 ± 0.042 | 0.028 ± 0.0069
UCGACCAACAGCUUGCAUAGUAUUUACAAA | 0.491 ± 0.041 | 0.00589 ± 0.0029
UCCUGGAUCAGCUUGCAUAGUUUAUAGUUA | 0.0282 ± 0.0076 | 0.0095 ± 0.0025
UCCUGGAUGAGCUCUGCAUAGUAUUUAGUUA | 0.457 ± 0.049 | 0.00909 ± 0.0027
UCCACCUUGAGCUUGCAUAGUAUUUAGAAA | 0.311 ± 0.049 | 0.00444 ± 0.0019
UCCUGCUACAGCUUGCAUUGUAUUUACUUA | 0.329 ± 0.047 | 0.0149 ± 0.0046
AGGACCUACAGCUUGCAUAGAAUUUAGUUA | 0.559 ± 0.044 | 0.0408 ± 0.011
UCCUGGAACAGCUUGCAUAGUUUUUUGUUA | 0.197 ± 0.025 | 0.0238 ± 0.0057
UCCACGUACUGCUUGCAUAGUAUUUAGUUA | 1.1 ± 0.05 | 0.052 ± 0.0083
UCCUGGAUCAGCUUGCAUAGUUAUUUAGUUA | 0.0152 ± 0.0049 | 0.00627 ± 0.0027
UCCUGCUACAGCUAGCAUAGAAUUUAGUUA | 0.528 ± 0.048 | 0.0108 ± 0.0032
UCCUCCUACACCUUGCAUAGUUUUUAGUUA | 0.228 ± 0.041 | 0.0173 ± 0.0035
